Assay results from paper PMC4336329 (PLoS ONE, 2015).
About 2,200 (0.71%) of roughly 310,000 compounds showed an effect of 50% or more. The effect is printed as a negative number. This is one part of the list.

molecular target: human ether-à-go-go-related gene (hERG) potassium channel (human, UniProt Q12809); experiment: primary screen, population patch clamp on CHO cells stably expressing hERG
Sequence (Q12809 whole entry, looked up): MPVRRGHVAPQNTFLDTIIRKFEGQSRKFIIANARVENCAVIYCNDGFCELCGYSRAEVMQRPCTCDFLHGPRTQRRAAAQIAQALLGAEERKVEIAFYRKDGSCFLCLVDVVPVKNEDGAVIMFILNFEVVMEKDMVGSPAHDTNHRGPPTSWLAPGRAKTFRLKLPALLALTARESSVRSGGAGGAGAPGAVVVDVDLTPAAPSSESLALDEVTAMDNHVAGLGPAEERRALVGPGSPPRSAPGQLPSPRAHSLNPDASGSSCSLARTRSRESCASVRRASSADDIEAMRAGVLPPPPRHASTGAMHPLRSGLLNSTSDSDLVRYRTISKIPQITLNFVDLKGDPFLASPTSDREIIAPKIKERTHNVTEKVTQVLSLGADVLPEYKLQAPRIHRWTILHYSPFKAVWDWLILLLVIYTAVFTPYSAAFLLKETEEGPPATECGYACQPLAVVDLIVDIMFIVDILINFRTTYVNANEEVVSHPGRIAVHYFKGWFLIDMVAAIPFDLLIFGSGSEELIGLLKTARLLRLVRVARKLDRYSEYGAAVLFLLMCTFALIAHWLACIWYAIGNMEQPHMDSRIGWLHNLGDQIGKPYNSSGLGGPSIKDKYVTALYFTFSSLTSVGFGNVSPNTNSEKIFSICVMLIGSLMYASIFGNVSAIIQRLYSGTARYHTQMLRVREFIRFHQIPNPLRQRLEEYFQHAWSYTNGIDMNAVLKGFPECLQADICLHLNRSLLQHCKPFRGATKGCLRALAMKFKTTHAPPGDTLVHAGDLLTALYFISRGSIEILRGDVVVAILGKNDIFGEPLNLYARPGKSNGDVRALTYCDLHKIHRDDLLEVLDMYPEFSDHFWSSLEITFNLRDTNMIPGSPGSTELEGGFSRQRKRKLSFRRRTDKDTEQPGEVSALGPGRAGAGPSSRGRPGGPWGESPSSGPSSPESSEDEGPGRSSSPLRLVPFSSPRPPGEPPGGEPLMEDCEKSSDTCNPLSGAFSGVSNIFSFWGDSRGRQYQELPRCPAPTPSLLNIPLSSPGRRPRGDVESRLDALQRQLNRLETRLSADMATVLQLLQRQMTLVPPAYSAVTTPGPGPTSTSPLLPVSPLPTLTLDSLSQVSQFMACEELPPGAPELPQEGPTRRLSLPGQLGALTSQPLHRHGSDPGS

SMILES | hERG current change (%, negative = inhibition) at 1uM [%]
OCCCNc1ncnc2oc(-c3ccccc3)c(-c3ccccc3)c12 | 7.88
COc1ccccc1CN1CC(C(=O)NCCc2ccccc2Cl)CCC1=O (stereo not shown) | 7.3
CCC(C)NC(=O)c1ccc(Cl)c(S(=O)(=O)Nc2ccccc2N2CCOCC2)c1 (stereo not shown) | 9.98
CCN1CCCC1CNC(=O)Cn1ncc2c(=O)oc3ccc(C)cc3c21 (stereo not shown) | 6.65
COc1ccc(NC(=O)NCc2cccn2C)c(OC)c1 | 12.1
O=C(NC(=S)Nc1ccc(NC(=O)c2cccs2)cc1)c1cc2ccccc2o1 | 0.457
CC1CN(C(=O)CSc2ncnc3sccc23)CC(C)O1 (stereo not shown) | 9.01
CN1CCc2c(n(CC(O)CN3CCN(CCO)CC3)c3ccccc23)C1=O.Cl (stereo not shown) | 16.9
Cc1noc2ncnc(SCc3ccc(C(F)(F)F)cc3)c12 | 3.91
COc1ccccc1/C=C1\SC(=O)N(CCC(=O)N(C)C2CCS(=O)(=O)C2)C1=O (stereo not shown) | 7.31
COc1ccc(CN2CC(=O)N(c3ccc(C)c(C)c3)C2=S)cc1OC | 10.6
CCO[C@@H]1OC(C(=O)Nc2ccccc2)=C[C@H](c2ccc3c(c2)OCO3)[C@H]1CCCO | 13.5
Cc1ccc(C2=NNC(c3cccc(F)c3)S2)cc1 (stereo not shown) | 9.73
CC(=O)N1CCOc2ccc(S(=O)(=O)NCCc3ccc(S(N)(=O)=O)cc3)cc21 | 4.69
COc1ccccc1CNCc1cc(OC)c(OC)cc1OC | 6.65
O=C(COc1ccc2ccccc2c1)NNC(=O)[C@@H]1CCCC[C@@H]1C(=O)O | 17.2
CSc1cccc(CNC(=O)C2CCC(=O)N(CC3CCCCC3)C2)c1 (stereo not shown) | 13.3
COc1ccc(CN(C(=O)CSc2nnc(-c3ccc(OC)c(OC)c3)o2)c2ccc(F)cc2)cc1 | 5.14
CCOc1ccc(N2CC(C(=O)NC3CCSC3=O)CC2=O)cc1 (stereo not shown) | 10.6
CCOc1ccc(/C=C/C(=O)c2ccc(-c3ccccc3)cc2)cc1 | 20.4
Oc1c(Br)cc(Br)cc1/C=N/NC(=S)N[C@H]1CC2C=CC1C2 (stereo partly shown) | 11.8
COc1ccc(NC(=O)CN2CCC(n3c(C)nc4cc(F)ccc43)CC2)c(OC)c1 | 13.6
CCn1cc(Cl)c(C(=O)NNC(=O)CCn2nc(C)c([N+](=O)[O-])c2C)n1 | -3.52
O=C(Cc1ccc(-n2c(=O)[nH]c3ccsc3c2=O)cc1)NCc1cccnc1 | 14
CCn1nc(C)c(CNC(=O)c2cc(COc3ccc(C)nc3)on2)c1C | 24.2
Cc1nn(C)cc1CNC(=O)/C=C/c1cnn(C)c1 | 11.5
Cc1nn2c(NCCOCCO)c3c(nc2c1-c1ccccc1)CCCC3 | -75.3
Cc1cc2ccccc2n1CCNC(=O)COc1ccc2ccccc2c1 | 11.1

SMILES | hERG current change (%, negative = inhibition) at 1uM [%]
CC(=O)N1c2ccc(S(=O)(=O)N3CCC(C(=O)Nc4cc(C)ccn4)CC3)cc2CC1C (stereo not shown) | 13.5
COCCC1CCCCN1C(=O)c1cccc(OC2CCN(C3CCCC3)CC2)c1 (stereo not shown) | 23.9
CSc1nnc(-c2ccccc2N=Cc2c(C)[nH]n(-c3ccc4ccccc4c3)c2=O)c(=O)[nH]1 | 9.08
CCOc1ccc(OCC)c(NC(=O)C2CCCN(S(=O)(=O)c3cnc[nH]3)C2)c1 (stereo not shown) | 13.2
Cl.O=C(CN1CCN(c2ccc(F)cc2)CC1)NCc1cccs1 | 0.973
CN(Cc1ccc(C(F)(F)F)cc1)C(=O)c1ccc(Oc2ccccc2)cc1 | 11.8
CCN(CC)c1cc2nc(C)n(Cc3ccccc3)c(=O)c2cc1NC(=O)C1CC1 | 0.211
CNC(=O)O/N=C(\C)Cc1nnn(-c2cc(C)on2)n1 | 8.99
CC(=O)Nc1ccc(Sc2ccccc2C(=O)O)cc1 | 14.3
O=C1CN(S(=O)(=O)c2cc(C(=O)O)ccc2Cl)c2ccccc2N1 | 9.56
CC(C)NS(=O)(=O)c1ccc(OCC(=O)N2CCN(c3ccccc3)CC2)cc1 | 7.22
O=C(O)c1cccnc1SCc1ccccc1 | 1.43
Cc1nc(NC(C)(C)CO)c([N+](=O)[O-])cc1[N+](=O)[O-] | 3.21
O=[N+]([O-])c1ccc(N2CCSCC2)cc1 | 13
COC(=O)N/N=C(\C)c1ccc(OC(F)F)cc1OC(F)F | 11.1
COc1ccc(NS(=O)(=O)c2ccc(F)cc2F)cn1 | 19.5
COc1ccc(Nc2cc(Sc3ccc(OC)cc3)ncn2)cc1 | 8.88
C/C=C/C(=O)Nc1cccc(C2=NOC3(C2)C[C@@H](C(N)=O)N(C(=O)/C(C)=C/C)C3)c1 (stereo partly shown) | 7.3
CC(C)(CNC(=O)c1ccc(NS(=O)(=O)c2ccc(Br)cc2)cc1)N1CCOCC1 | 0.502
CC1(C)C(=O)OC(/C=C\c2cccc([N+](=O)[O-])c2)C(C)(C)C1=O (stereo not shown) | 9.5
Cc1ccccc1-n1c(Cn2c(=O)sc3ccccc32)nnc1SCC(=O)N1CCOCC1 | 8.69
O=C(c1ccc(CS(=O)(=O)c2ccccc2)o1)N1CCN(c2ccccc2)CC1 | 5.72
COc1ccc2ccccc2c1CNC(=O)CC1C(=O)NCCN1CC(C)(C)C (stereo not shown) | 6.64
Cc1ccc(C(=O)N[C@H](C(=O)OCc2cc(=O)n3c(n2)sc2ccccc23)C(C)C)cc1 | 6.29
Brc1ccc(-c2nn3c(Cc4ccccc4)nnc3s2)o1 | 7.52
CN(C(=O)CN1C(=O)/C(=C/c2ccccc2Cl)SC1=S)C1CCS(=O)(=O)C1 (stereo not shown) | 15
CCn1cc(C(=O)N[C@H](C(=O)NC(C)(C)CO)C(C)C)c(=O)c2cc3c(cc21)OCO3 | 14.3
